44 molecules from article PMC4336329 (PLoS ONE, 2015) can be followed below.

In all, about 310,000 compounds went through this assay and about 14,000 (4.5%) showed an effect of 50% or more. Effects have a minus sign here. The list shows a part of the results.
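Also: peak tail current of the secondary pulse compared with the same well before compound.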

For this experiment, the target named is human ether-à-go-go-related gene (hERG) potassium channel (human, UniProt Q12809). The experiment is described as follows: primary screen, population patch clamp on CHO cells stably expressing hERG.
Chain of human ether-à-go-go-related gene (hERG) potassium channel (Q12809 whole entry, looked up): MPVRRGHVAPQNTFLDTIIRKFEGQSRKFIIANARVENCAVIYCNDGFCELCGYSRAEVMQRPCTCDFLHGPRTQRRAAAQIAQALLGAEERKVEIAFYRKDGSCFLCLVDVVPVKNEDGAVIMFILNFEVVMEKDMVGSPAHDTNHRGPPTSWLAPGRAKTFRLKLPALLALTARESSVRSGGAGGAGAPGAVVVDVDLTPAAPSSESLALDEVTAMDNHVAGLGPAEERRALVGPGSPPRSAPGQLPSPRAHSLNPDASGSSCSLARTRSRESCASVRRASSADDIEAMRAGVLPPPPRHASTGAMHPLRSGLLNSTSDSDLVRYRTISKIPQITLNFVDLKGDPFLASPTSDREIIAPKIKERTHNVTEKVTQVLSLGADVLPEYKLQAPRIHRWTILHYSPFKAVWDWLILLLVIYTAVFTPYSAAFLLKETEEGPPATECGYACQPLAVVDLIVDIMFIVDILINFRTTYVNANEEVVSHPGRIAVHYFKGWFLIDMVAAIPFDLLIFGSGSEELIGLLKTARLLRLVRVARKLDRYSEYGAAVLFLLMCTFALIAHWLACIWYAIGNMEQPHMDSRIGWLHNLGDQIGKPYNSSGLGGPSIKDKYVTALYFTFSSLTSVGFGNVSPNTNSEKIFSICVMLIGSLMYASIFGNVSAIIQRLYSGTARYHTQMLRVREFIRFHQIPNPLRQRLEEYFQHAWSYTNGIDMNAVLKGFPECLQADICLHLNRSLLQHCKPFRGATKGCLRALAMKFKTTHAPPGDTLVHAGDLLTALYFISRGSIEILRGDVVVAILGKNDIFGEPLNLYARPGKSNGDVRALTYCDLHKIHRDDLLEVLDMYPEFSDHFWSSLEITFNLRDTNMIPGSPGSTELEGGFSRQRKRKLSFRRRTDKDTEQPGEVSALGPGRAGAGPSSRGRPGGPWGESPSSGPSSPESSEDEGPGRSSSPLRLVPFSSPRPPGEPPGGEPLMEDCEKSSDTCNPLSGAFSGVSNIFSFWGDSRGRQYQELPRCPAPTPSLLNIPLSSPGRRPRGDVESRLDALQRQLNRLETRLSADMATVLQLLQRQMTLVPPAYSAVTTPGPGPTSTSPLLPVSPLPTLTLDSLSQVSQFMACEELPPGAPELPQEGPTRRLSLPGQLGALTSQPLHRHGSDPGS
With `CCc1ccccc1N(C(C)=O)c1nc(CN=C=S)cs1`, the “hERG current change (%, negative = inhibition) at 10uM” value is listed as -17%.

Take `CCn1c(=S)[nH]c2sc3c(c2c1=O)CCCCC3`: the “hERG current change (%, negative = inhibition) at 10uM” value was determined as 26%.

Take `O=C(Nc1cccc(S(=O)(=O)N2CCCCCC2)c1)c1ccc2c(c1)OCO2`: the “hERG current change (%, negative = inhibition) at 10uM” value came out at 2.46%.

As for `CSc1cccc(NC(=O)CNS(=O)(=O)c2ccccc2)c1`, the “hERG current change (%, negative = inhibition) at 10uM” value was found to be 14.1%.

Regarding `O=C(CCCn1c(=S)[nH]c2ccccc2c1=O)N1CCN(c2cccc(Cl)c2)CC1`, the “hERG current change (%, negative = inhibition) at 10uM” value is 12.9%.

On to `O=C(O)c1ccc(NC(=O)c2ccco2)c(NC(=O)c2ccco2)c1`, for which the “hERG current change (%, negative = inhibition) at 10uM” value stood at 17.6%.

As to `CCOc1ccccc1OCCC(=O)OCC(=O)c1ccc[nH]1`, the “hERG current change (%, negative = inhibition) at 10uM” value is recorded as -16.2%.

Turning to `Cc1ccc(-c2cc(C(=O)N/N=C/c3ccoc3)c3ccccc3n2)cc1`, the “hERG current change (%, negative = inhibition) at 10uM” value worked out at 8.98%.

Take `Cc1ccc(NC(=O)CCc2c(C)nn(-c3ccc(N4CCCCC4)nn3)c2C)cc1C`: the “hERG current change (%, negative = inhibition) at 10uM” value is -5%.

With `O=C(CCCOc1ccc(Cl)cc1Cl)N/N=C/c1cccc([N+](=O)[O-])c1`, the “hERG current change (%, negative = inhibition) at 10uM” value is given as 9.56%.

Take `CC(=O)Nc1ccccc1N(CC(O)Cn1c2ccccc2c2ccccc21)S(=O)(=O)c1ccc(C)cc1` (centres unmarked): the “hERG current change (%, negative = inhibition) at 10uM” value amounted to 23.6%.

Turning to `CN1CCCN(c2ccc([N+](=O)[O-])cc2)CC1`, the “hERG current change (%, negative = inhibition) at 10uM” value was -66%.

For `Cc1nn(CC(=O)NNC(=O)c2ccc(Br)cc2)c(C)c1[N+](=O)[O-]`, the “hERG current change (%, negative = inhibition) at 10uM” value was -26.5%.

Turning to `O=C(CCN1C(=O)/C(=C/c2ccccc2Cl)SC1=S)Nc1cccnc1`, the “hERG current change (%, negative = inhibition) at 10uM” value amounted to 4.14%.

Consider `O=C(NN1S(=O)(=O)c2ccccc2S1(=O)=O)c1ccc(Br)cc1`, for which the “hERG current change (%, negative = inhibition) at 10uM” value is recorded as -25%.

Take `COc1ccc(COC(=O)C2=C(C)NC(=O)NC2c2ccccc2OC(C)C)cc1` (centres unmarked): the “hERG current change (%, negative = inhibition) at 10uM” value is -0.138%.

Consider `COc1ccc(C(=O)NCC(=O)OCC(=O)NC(=O)c2ccc(C(C)(C)C)cc2)cc1OC`, for which the “hERG current change (%, negative = inhibition) at 10uM” value is listed as -23.7%.

For `CCC(=O)N1CCc2cc(S(=O)(=O)NCCCOC)ccc21`, the “hERG current change (%, negative = inhibition) at 10uM” value was 8.18%.

For `COc1ccc(/C(N)=N/OC(=O)c2ccc(C)c([N+](=O)[O-])c2)cc1`, the “hERG current change (%, negative = inhibition) at 10uM” value is -6.61%.

As for `CC(=O)Nc1ccc(OCC(O)CN2C(C)(C)CC(O)CC2(C)C)cc1` (centres unmarked), the “hERG current change (%, negative = inhibition) at 10uM” value was determined as 3.95%.

For the molecule `O=C(Nc1nc(-c2ccncc2)cs1)c1ccco1`, the “hERG current change (%, negative = inhibition) at 10uM” value is 2.66%.

Regarding `COc1ccc(OC)c(NC(=O)c2cccnc2Sc2ccccc2)c1`, the “hERG current change (%, negative = inhibition) at 10uM” value is reported as -1.6%.

Regarding `O=C(CCc1ccccc1)NCc1cccnc1`, the “hERG current change (%, negative = inhibition) at 10uM” value is given as -4.75%.

In the case of `CC1(C(=O)OCC(=O)N2c3ccccc3Sc3ccccc32)CC1(Cl)Cl` (centres unmarked), the “hERG current change (%, negative = inhibition) at 10uM” value is 1.36%.

For the molecule `Cc1ccc2c(c1)nnn2C1CCN(C(=O)c2cccs2)CC1`, the “hERG current change (%, negative = inhibition) at 10uM” value is reported as -48.6%.

Take `N#Cc1cccc(NC(=O)COC(=O)c2cccc(N3C(=O)c4ccccc4C3=O)c2)c1`: the “hERG current change (%, negative = inhibition) at 10uM” value was -1.41%.

Consider `COc1ccc(Cc2noc(CN3CCC(c4ccncc4)CC3)n2)cc1OC`, for which the “hERG current change (%, negative = inhibition) at 10uM” value was -20%.

Consider `CCS(=O)(=O)c1ccc2oc(=O)c(/C=C(\O)c3ccc(Cl)cc3)nc2c1`, for which the “hERG current change (%, negative = inhibition) at 10uM” value stood at 18.2%.

In the case of `COc1ccccc1CNC(=O)N1CCN(c2ccccc2C)CC1`, the “hERG current change (%, negative = inhibition) at 10uM” value is 6.36%.

In the case of `Cn1c(CN2CCOCC2)nnc1SCC(=O)Nc1cc(Cl)ccc1Cl`, the “hERG current change (%, negative = inhibition) at 10uM” value is -7.99%.

As to `Cc1ccccc1C(=O)N1CCN(c2ccc(NC(=O)CSc3ccc(Cl)cc3)cc2)CC1`, the “hERG current change (%, negative = inhibition) at 10uM” value is listed as -9.85%.

For the molecule `CC(=O)c1ccc(NC(=O)C2CCC(C)NC2=O)cc1` (centres unmarked), the “hERG current change (%, negative = inhibition) at 10uM” value is listed as -7.61%.

For `O=C(CSC(=S)N1CCCCC1)Nc1ncc2c(n1)CC(c1ccco1)CC2=O` (centres unmarked), the “hERG current change (%, negative = inhibition) at 10uM” value is on record as -41.3%.

With `c1ccc(NCc2ccccn2)cc1`, the “hERG current change (%, negative = inhibition) at 10uM” value is 16%.

As for `COc1ccc(CNC(=O)COc2cccnc2[N+](=O)[O-])cc1OC`, the “hERG current change (%, negative = inhibition) at 10uM” value worked out at 13.5%.

As for `CCc1ccccc1NC(=O)CN(C)C(=O)CSc1nc2cc(Cl)ccc2s1`, the “hERG current change (%, negative = inhibition) at 10uM” value is reported as 17.8%.

In the case of `Nn1c(SCC(=O)Nc2nnc(-c3ccccc3)o2)nnc1C1CC1`, the “hERG current change (%, negative = inhibition) at 10uM” value was 6.36%.

As to `CCCn1nc(C(=O)OCC(=O)Nc2ncc(Cl)c(C)c2Cl)c2ccccc2c1=O`, the “hERG current change (%, negative = inhibition) at 10uM” value was -3.02%.

Regarding `CCOc1ccc2nc3ccc4[nH]onc4c3c2c1`, the “hERG current change (%, negative = inhibition) at 10uM” value amounted to 7.72%.

Consider `COc1ccc(C(=O)/C=C/NCc2ccc(C)cc2)cc1`, for which the “hERG current change (%, negative = inhibition) at 10uM” value is -17.2%.

Regarding `Cc1cc(CNC(=O)CC2C(=O)NCCN2Cc2ccccc2C(F)(F)F)on1` (centres unmarked), the “hERG current change (%, negative = inhibition) at 10uM” value is listed as 10.1%.

Regarding `FC(F)Oc1ccc(NC(=S)NCCc2ccccn2)cc1`, the “hERG current change (%, negative = inhibition) at 10uM” value is -12.7%.

Turning to `CN(C)C1(CNC(=O)c2cccc(S(=O)(=O)NCc3ccccc3)c2)CCCCC1`, the “hERG current change (%, negative = inhibition) at 10uM” value is recorded as -49.5%.

As for `Cl.N=c1ccn(Cc2ccc(Cl)cc2Cl)cc1`, the “hERG current change (%, negative = inhibition) at 10uM” value was -15.2%.
